Assay results as given in PubChem BioAssay (Tox21).
“And” between values parts separate entries of the source, which are not always exact repeats. Identical values can stand only once. The shares of active, inactive and inconclusive entries below differ from those in the screen. For part of these data: Potencies beside an inconclusive call are fits to weak or partial responses and may not hold up. The source made the active and inactive calls. Unless noted, calls follow the shape of the dose curve; as a rule, active = well fitted curve in the direction sought with a large enough effect in the repeat runs; inconclusive = weak or mixed curves; inactive = no such curve, though single readings can be large; an effect the other way counts as inactive or inconclusive.

Columns and labels:
[1] = qHTS assay to identify small molecule that activate the aryl hydrocarbon receptor (AhR) signaling pathway - cell viability counter screen (AID 743086); also: nearly all actives have a fitted effect of over 45% in size
In short: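 HepG2-AhR-luc (HG2L7.5c1) cells, 4000/well, treated 24 h at 37 C with compound; viability measured as CellTiter-Fluor fluorescence after 30 min in the same wells as the luciferase read.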

[2] = target: Peroxisome proliferator-activated receptor gamma (Homo sapiens) (UniProt P37231); test: qHTS assay to identify small molecule antagonists of the peroxisome proliferator-activated receptor gamma (PPARg) signaling pathway (AID 743191; calls by dose curve; also: nearly all actives have a fitted effect of over 30% in size; as to ratio activity, negative = inhibition: % is scaled to controls: 0 for no effect and ±100 for the full control effect); details: HEK293H PPARg-UAS-bla, beta-lactamase ratio, antagonist, 17 h; ratio activity, negative = inhibition: at 62.6 µM (top of the series) unless noted
Sequence of UniProt P37231 (P37231 whole entry, looked up): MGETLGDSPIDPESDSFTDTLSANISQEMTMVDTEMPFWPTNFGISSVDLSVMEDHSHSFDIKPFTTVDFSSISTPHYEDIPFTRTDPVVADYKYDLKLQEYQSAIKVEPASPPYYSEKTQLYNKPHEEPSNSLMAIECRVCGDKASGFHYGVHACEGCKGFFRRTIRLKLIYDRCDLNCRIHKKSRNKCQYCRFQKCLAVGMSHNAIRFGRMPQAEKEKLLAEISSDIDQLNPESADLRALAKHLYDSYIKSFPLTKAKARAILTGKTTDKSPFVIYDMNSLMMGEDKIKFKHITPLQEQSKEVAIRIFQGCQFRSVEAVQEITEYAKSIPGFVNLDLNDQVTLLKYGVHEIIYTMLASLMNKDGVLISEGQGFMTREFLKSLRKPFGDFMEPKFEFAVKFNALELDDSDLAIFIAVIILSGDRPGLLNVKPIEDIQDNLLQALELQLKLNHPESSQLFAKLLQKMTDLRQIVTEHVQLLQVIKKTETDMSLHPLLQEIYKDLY
In short: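 GeneBLAzer PPARg UAS-bla HEK293H cells, 5 h post-plating, exposed to compounds 17 h at 37C. LiveBLAzer B/G FRET substrate added for 1 h at room temperature; beta-lactamase reporter read by fluorescence intensity.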

[3] = qHTS assay for small molecule agonists of the antioxidant response element (ARE) signaling pathway (AID 743202; active = well fitted activation curve with a large enough effect in the signal ratio in the repeat runs, not every such curve was filed as active; inconclusive = weak or mixed curves, or effect the other way; inactive = no such curve, though single readings can be large or run the other way; the % refers to the signal ratio); details: HepG2 ARE-bla reporter, beta-lactamase FRET, 16 h; activation: at 73.3 µM (top of the series) unless noted
In short: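 HepG2 ARE-bla reporter line, 2,000 cells/well; 5 h preincubation 37 C/5% CO2; compound (DMSO) 16 h 37 C; B/G FRET substrate 2 h RT; fluorescence intensity.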

[4] = qHTS assay to identify small molecule antagonists of the peroxisome proliferator-activated receptor delta (PPARd) signaling pathway - cell viability counter screen (AID 743213); details: PPARd-bla HEK293H viability, CellTiter-Glo luminescence, 17 h; viability change, negative = cytotoxic: at 62 µM (top of the series) unless noted; also: nearly all actives have a fitted effect of over 50% in size
In short: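 In this counter screen, HEK293H cells carrying a UAS-beta-lactamase reporter are co-treated with test compounds and 300 nM L165041 (final) for 17 h at 37 C; cell viability is quantified by CellTiter-Glo luminescence.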

[5] = qHTS assay to identify small molecule antagonists of the vitamin D receptor (VDR) signaling pathway - cell viability counter screen (AID 743225); details: VDR-bla HEK293T viability, CellTiter-Glo luminescence, 16 h; viability change, negative = cytotoxic: at 61 µM (top of the series) unless noted; also: nearly all actives have a fitted effect of over 50% in size; as to viability change, negative = cytotoxic: % is scaled to controls: 0 for no effect and ±100 for the full control effect
In short: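 Parallel cytotoxicity test: VDR-UAS-bla HEK 293T, 3 nM (final) 1-alpha,25-dihydroxyvitamin D3 with test compound, 16 h, 37C. Endpoint is CellTiter-Glo luminescence in the same wells.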

[6] = target: Peroxisome proliferator-activated receptor delta (Homo sapiens) (UniProt Q03181); test: qHTS assay to identify small molecule agonists of the peroxisome proliferator-activated receptor delta (PPARd) signaling pathway (AID 743212; calls by dose curve); details: HEK293H PPARd-UAS-bla, beta-lactamase FRET ratio, 17 h; activation: at 62.6 µM (top of the series) unless noted
Sequence of UniProt Q03181 (Q03181 whole entry, looked up): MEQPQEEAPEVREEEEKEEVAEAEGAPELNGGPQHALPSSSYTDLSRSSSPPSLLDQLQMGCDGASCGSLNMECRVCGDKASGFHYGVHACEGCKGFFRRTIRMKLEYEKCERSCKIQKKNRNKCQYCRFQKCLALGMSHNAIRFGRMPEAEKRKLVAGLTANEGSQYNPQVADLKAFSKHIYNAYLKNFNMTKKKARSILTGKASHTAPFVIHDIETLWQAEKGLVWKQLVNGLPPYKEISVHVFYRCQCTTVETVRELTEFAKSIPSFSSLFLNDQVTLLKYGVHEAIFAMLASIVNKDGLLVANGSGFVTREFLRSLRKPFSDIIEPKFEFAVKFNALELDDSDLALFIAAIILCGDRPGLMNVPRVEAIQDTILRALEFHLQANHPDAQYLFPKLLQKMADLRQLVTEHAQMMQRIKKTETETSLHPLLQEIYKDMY
In short: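 Read-out: beta-lactamase FRET fluorescence after 2 h room-temperature incubation with LiveBLAzer B/G substrate. Cells were HEK293H carrying a UAS-bla reporter for PPARd, treated at 37 C with DMSO-dissolved compounds.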

[7] = target: Bile acid receptor (Homo sapiens) (UniProt Q96RI1); test: qHTS assay to identify small molecule antagonists of the farnesoid-X-receptor (FXR) signaling pathway (AID 743217; active = well fitted inhibition curve with a large enough effect in the signal ratio in the repeat runs, not every such curve was filed as active; inconclusive = weak or mixed curves, or effect the other way; inactive = no such curve, though single readings can be large or run the other way; the % refers to the signal ratio); details: HEK293T FXR-UAS-bla, beta-lactamase ratio, CDCA-stimulated, 16 h; activity change, negative = inhibition: at 62.6 µM (top of the series) unless noted
Sequence of UniProt Q96RI1 (Q96RI1 whole entry, looked up): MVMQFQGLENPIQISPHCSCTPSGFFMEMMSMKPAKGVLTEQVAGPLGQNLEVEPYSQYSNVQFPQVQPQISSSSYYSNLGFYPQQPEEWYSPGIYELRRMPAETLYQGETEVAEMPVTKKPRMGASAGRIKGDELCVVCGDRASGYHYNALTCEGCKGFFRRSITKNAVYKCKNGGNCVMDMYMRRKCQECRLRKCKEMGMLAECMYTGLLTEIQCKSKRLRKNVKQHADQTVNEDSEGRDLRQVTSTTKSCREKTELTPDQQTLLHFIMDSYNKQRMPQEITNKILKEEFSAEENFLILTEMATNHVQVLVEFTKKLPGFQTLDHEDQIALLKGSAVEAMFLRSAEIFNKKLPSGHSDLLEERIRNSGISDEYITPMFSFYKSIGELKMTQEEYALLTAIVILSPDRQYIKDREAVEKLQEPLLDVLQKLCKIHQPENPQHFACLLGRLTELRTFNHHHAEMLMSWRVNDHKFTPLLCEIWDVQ
In short: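 Test compounds are pin-transferred onto FXR-bla HEK 293T cells, then chenodeoxycholic acid is added at 50 uM final. After 16 h at 37 °C, LiveBLAzer B/G substrate is applied for 2 h at room temperature and fluorescence read.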

[8] = target: Vitamin D3 receptor (Homo sapiens) (UniProt P11473); test: qHTS assay to identify small molecule agonists of the vitamin D receptor (VDR) signaling pathway (AID 743222; calls by dose curve); details: HEK293T VDR-UAS-bla, beta-lactamase FRET ratio, 16 h; activation: at 63.5 µM (top of the series) unless noted
Sequence of UniProt P11473 (P11473 whole entry, looked up): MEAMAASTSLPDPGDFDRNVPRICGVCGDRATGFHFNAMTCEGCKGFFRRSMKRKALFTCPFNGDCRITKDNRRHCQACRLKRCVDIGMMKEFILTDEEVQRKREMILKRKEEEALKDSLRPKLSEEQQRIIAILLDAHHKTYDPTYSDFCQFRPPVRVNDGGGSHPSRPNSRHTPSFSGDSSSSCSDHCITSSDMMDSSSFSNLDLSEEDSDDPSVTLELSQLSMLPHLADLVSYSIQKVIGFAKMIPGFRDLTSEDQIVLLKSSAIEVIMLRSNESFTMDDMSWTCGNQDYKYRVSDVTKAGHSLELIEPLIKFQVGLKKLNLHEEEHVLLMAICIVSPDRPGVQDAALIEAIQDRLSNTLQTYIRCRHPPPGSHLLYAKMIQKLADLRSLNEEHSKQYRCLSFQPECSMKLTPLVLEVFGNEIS
In short: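 Tox21 cell reporter format: VDR-bla line, 16 h compound exposure in 5% CO2 at 37C, then fluorescence intensity after 2 h with LiveBLAzer B/G FRET substrate.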

[9] = target: Vitamin D3 receptor (Homo sapiens) (UniProt P11473); test: qHTS assay to identify small molecule antagonists of the vitamin D receptor (VDR) signaling pathway (AID 743223; active = well fitted inhibition curve with a large enough effect in the signal ratio in the repeat runs, not every such curve was filed as active; inconclusive = weak or mixed curves, or effect the other way; inactive = no such curve, though single readings can be large or run the other way; the % refers to the signal ratio; as to activity change, negative = inhibition: % is scaled to controls: 0 for no effect and ±100 for the full control effect); details: VDR-UAS-bla HEK293T, beta-lactamase FRET ratio, 16 h; activity change, negative = inhibition: at 61 µM (top of the series) unless noted
In short: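 Reporter line VDR-bla; stimulus 1alpha,25-(OH)2 vitamin D3, 3 nM final; compound co-addition, 16 h 37C/5% CO2; LiveBLAzer B/G substrate 2 h RT; fluorescence intensity.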

[10] = qHTS assay for small molecule agonists of the antioxidant response element (ARE) signaling pathway - cell viability counter screen (AID 743203; calls by dose curve; also: nearly all actives have a fitted effect of over 55% in size); details: ARE-bla HepG2 viability, CellTiter-Glo luminescence, 16 h; viability change, negative = cytotoxic: at 73.3 µM (top of the series)
In short: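 ATP content via CellTiter-Glo luminescence served as the viability measure. Cells: ARE-bla HepG2, 2,000 per well. Exposure: 16 hrs, 37C/5% CO2.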

[11] = qHTS assay to identify small molecule agonists of the farnesoid-X-receptor (FXR) signaling pathway - cell viability counter screen (AID 743218); details: FXR-bla HEK293T viability, CellTiter-Glo luminescence, 16 h; viability change, negative = cytotoxic: at 62.6 µM (top of the series) unless noted; also: nearly all actives have a fitted effect of over 45% in size
In short: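 Quantitative HTS counter screen measuring ATP-based viability via CellTiter-Glo luminescence in HEK 293T cells carrying a UAS-driven beta-lactamase reporter, after 16 h compound exposure at 37 C.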

[12] = target: Bile acid receptor (Homo sapiens) (UniProt Q96RI1); test: qHTS assay to identify small molecule agonists of the farnesoid-X-receptor (FXR) signaling pathway (AID 743220; active = well fitted activation curve with a large enough effect in the signal ratio in the repeat runs, not every such curve was filed as active; inconclusive = weak or mixed curves, or effect the other way; the % refers to the signal ratio; as to activation: % is scaled to controls: 0 for no effect and ±100 for the full control effect); details: HEK293T FXR-UAS-bla, beta-lactamase FRET ratio, 16 h; activation: at 62.6 µM (top of the series) unless noted
In short: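 FXR-UAS-bla HEK 293T cells carrying a UAS-driven beta-lactamase reporter were plated for 5 h at 37C/5% CO2, then exposed to DMSO-dissolved Tox21 10K compounds for 16 h at 37C. A LiveBLAzer B/G FRET substrate was loaded for 2 h at room temperature before fluorescence reading.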

[13] = qHTS assay to identify small molecule antagonists of the farnesoid-X-receptor (FXR) signaling pathway - cell viability counter screen (AID 743221; active = well fitted cell-killing curve with a large enough effect in the repeat runs, not every such curve was filed as active; inconclusive = weak or mixed curves, or effect the other way; inactive = no such curve, though single readings can be large or run the other way; also: nearly all actives have a fitted effect of over 50% in size); details: FXR-bla HEK293T viability, CellTiter-Glo luminescence, 16 h; activity change, negative = cytotoxicity: at 62.6 µM (top of the series)
In short: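 After a 5 h settling period, FXR-bla HEK 293T cells receive compound and chenodeoxycholic acid (50 uM final) and incubate 16 h at 37 C; CellTiter-Glo luminescence, read after 30 min at room temperature, reports cell viability.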

[14] = qHTS assay for small molecule activators of the heat shock response signaling pathway (AID 743210; active = well fitted activation curve with a large enough effect in the signal ratio in the repeat runs, with a control signal flat, not every such curve was filed as active; inconclusive = weak or mixed curves; the % refers to the signal ratio); details: HeLa HSE-bla reporter, beta-lactamase ratio, 5 h; activation: at 62.6 µM (top of the series)
In short: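 Beta-lactamase reporter read-out: FRET substrate fluorescence after 2.5 h at RT, following 5 h compound treatment at 37 C of HeLa cells carrying HSE-driven bla reporter; quantitative HTS format.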

[15] = qHTS assay to identify small molecule agonists of the peroxisome proliferator-activated receptor delta (PPARd) signaling pathway - cell viability counter screen (AID 743211); details: PPARd-bla HEK293H viability, CellTiter-Glo luminescence, 17 h; activity change, negative = cytotoxicity: at 62.6 µM (top of the series); also: nearly all actives have a fitted effect of over 55% in size
In short: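 qHTS cell viability: PPARd-bla HEK293H; 17 h cpd, 37C; CellTiter-Glo, luminescence at 30 min RT.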

[16] = target: Peroxisome proliferator-activated receptor delta (Homo sapiens) (UniProt Q03181); test: qHTS assay to identify small molecule antagonists of the peroxisome proliferator-activated receptor delta (PPARd) signaling pathway (AID 743215; active = well fitted inhibition curve with a large enough effect in the signal ratio in the repeat runs, not every such curve was filed as active; inconclusive = weak or mixed curves, or effect the other way; inactive = no such curve, though single readings can be large or run the other way; the % refers to the signal ratio;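 also: cells stimulated with agonist L165041 at 300 nM final during compound exposure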); details: HEK293H PPARd-UAS-bla, beta-lactamase FRET ratio, antagonist, 17 h; ratio activity, negative = inhibition: at 62 µM (top of the series) unless noted
In short: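 Here, a reporter line (HEK293H, beta-lactamase under a UAS) measures PPARd signaling. Compounds are tested against agonist L165041 at 300 nM final concentration over 17 h at 37 C, with fluorescence read after substrate.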

[17] = qHTS assay to identify small molecule agonists of the vitamin D receptor (VDR) signaling pathway - cell viability counter screen (AID 743224); details: VDR-bla HEK293T viability, CellTiter-Glo luminescence, 16 h; activity change, negative = cytotoxicity: at 62.6 µM (top of the series) unless noted; also: nearly all actives have a fitted effect of over 50% in size
In short: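 CellTiter-Glo viability readout on VDR-bla cells, measured after 16 h of compound treatment at 37C in the same wells.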

[18] = qHTS assay to identify small molecule antagonists of the peroxisome proliferator-activated receptor gamma (PPARg) signaling pathway - cell viability counter screen (AID 743194); details: PPARg-bla HEK293H viability, CellTiter-Glo luminescence, 17 h, co-treated with 50 nM rosiglitazone; activity change, negative = cytotoxicity: at 62.6 µM (top of the series) unless noted; also: nearly all actives have a fitted effect of over 55% in size
In short: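 Cytotoxicity counter screen in PPARg-bla HEK293H cells, same wells as reporter assay. Compounds plus 50 nM rosiglitazone (final) for 17 h at 37 C, then viability read by CellTiter-Glo luminescence.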

[19] = qHTS assay for small molecule activators of the heat shock response signaling pathway - cell viability counter screen (AID 743209); details: HSE-bla HeLa viability, CellTiter-Glo luminescence, 5 h; activity change, negative = cytotoxicity: at 62.6 µM (top of the series) unless noted; also: nearly all actives have a fitted effect of over 50% in size
In short: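 Compounds dissolved in DMSO were added to overnight-plated HSE-bla HeLa cells and left 5 h at 37 C. Cell viability was quantified by luminescence using CellTiter-Glo.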
Potency is read from the fitted curve at half-maximal effect; tags tell the direction and shape of the fitted curve or compound fluorescence and quenching.

C=C1C[C@H]2[C@@H]3C=C(C)C4=CC(=O)CC[C@]4(C)[C@H]3CC[C@]2(C)[C@@]1(OC(C)=O)C(C)=O
Potency [1]: inconclusive: 33.5 µM [falling, partial curve, poor fit] | ratio activity, negative = inhibition [2]: inconclusive: 7.23% | Potency [3]: active: 17.6 µM and active: 29.8 µM | Potency [4]: inconclusive: 12.6 µM [cytotoxic, partial curve, poor fit] | viability change, negative = cytotoxic [5]: inconclusive: -33.1% [cytotoxic]

O=C1OC2(c3ccccc31)c1cc(Br)c(O)c(Br)c1Oc1c2cc(Br)c(O)c1Br
Potency [1]: active: 10.6 µM and active: 2.77 µM and active: 6.28 µM | Potency [2]: inconclusive: 19.8 µM [rising, partial curve] and inconclusive: 40 µM [rising, partial curve] and inconclusive: 23.7 µM [rising, partial curve] | Potency [6]: inconclusive: 24.9 µM [rising, partial curve] and inconclusive: 22.5 µM [rising, partial curve] and inconclusive: 26.6 µM [rising, partial curve] | Potency [4]: inconclusive: 18.8 µM [cytotoxic, single point] | Potency [7]: inconclusive: 22.2 µM [rising, partial curve] and inconclusive: 40 µM [rising, partial curve] and inconclusive: 29.8 µM [rising, partial curve] | Potency [8]: inconclusive: 22.2 µM [rising, partial curve] and inconclusive: 25.2 µM [rising, partial curve] and inconclusive: 29.8 µM [rising, partial curve] | Potency [9]: inconclusive: 22.2 µM [rising, partial curve] and inconclusive: 22.5 µM [rising, partial curve] and inconclusive: 23.9 µM [rising, partial curve] | viability change, negative = cytotoxic [5]: inconclusive: 3.07% [cytotoxic]

CC(C)(C)c1ccc(O)c(C(C)(C)C)c1
Potency [1]: inconclusive: 0.386 µM [rising, full curve, poor fit] | Potency [2]: inconclusive: 61.4 µM [cytotoxic] and inconclusive: 54.9 µM [cytotoxic, partial curve, poor fit] | Potency [10]: inconclusive: 68.3 µM [cytotoxic, single point] and active: 61.1 µM | Potency [4]: active: 38.7 µM and active: 49 µM | Potency [7]: inconclusive: 43.5 µM [inhibitor, partial curve] and inconclusive: 38.9 µM [inhibitor, partial curve] | Potency [11]: inconclusive: 61.4 µM [cytotoxic, single point] and inconclusive: 54.9 µM [cytotoxic, single point] | activation [12]: inconclusive: 15.9% | Potency [13]: inconclusive: 54.7 µM [falling, single point] | Potency [9]: inconclusive: 7.76 µM [rising, partial curve, poor fit] | activity change, negative = inhibition [9]: inconclusive: -38.7% | Potency [5]: active: 24.4 µM and active: 43.6 µM

CC[C@H](c1ccc(O)cc1)[C@@H](CC)c1ccc(O)cc1
Potency [1]: inconclusive: 68.6 µM [falling, single point] | Potency [2]: inconclusive: 13.8 µM and active: 29.8 µM | Potency [14]: inconclusive: 57.5 µM and inconclusive: 22.4 µM [fluorescent] | Potency [15]: inconclusive: 33.5 µM [cytotoxic, single point] | Potency [4]: inconclusive: 54.9 µM [cytotoxic] | Potency [16]: inconclusive: 54.9 µM [inhibitor, single point] | activity change, negative = inhibition [9]: inconclusive: -75.2% and inconclusive: -37.1% | Potency [17]: inconclusive: 54.9 µM [cytotoxic, single point] | Potency [5]: inconclusive: 54.9 µM [cytotoxic] and inconclusive: 26.8 µM [cytotoxic, single point]

Nc1cc(Cl)c(-c2cc(Cl)c(N)cc2Cl)cc1Cl
Potency [1]: inconclusive: 68.6 µM [falling, partial curve, poor fit] | Potency [2]: inconclusive: 61.6 µM [cytotoxic, single point] and inconclusive: 9.77 µM | Potency [18]: active: 48.9 µM and active: 17.4 µM | Potency [19]: inconclusive: 54.9 µM [cytotoxic, single point] and active: 24.5 µM | Potency [14]: inconclusive: 54.9 µM and inconclusive: 37.4 µM | Potency [6]: inconclusive: 1.95 µM [rising, full curve, poor fit] | Potency [4]: active: 24.5 µM | Potency [16]: inconclusive: 21.9 µM and inconclusive: 54.9 µM [cytotoxic, single point] | Potency [7]: inconclusive: 27.5 µM [rising, partial curve] and inconclusive: 54.9 µM [rising, partial curve] | Potency [11]: active: 43.6 µM and active: 12.3 µM | Potency [12]: inconclusive: 61.6 µM [falling, single point] | Potency [13]: inconclusive: 54.9 µM and active: 38.9 µM | activation [8]: inconclusive: 36% and inconclusive: 0.342% | Potency [17]: inconclusive: 54.9 µM [cytotoxic] | Potency [5]: inconclusive: 54.9 µM [cytotoxic] and active: 21.9 µM
